Consider 1 protein from PMC2937989 (The Journal of Biological Chemistry, 2010).

The data set concerns the molecule itself. In words: SEC. (In general: Size exclusion chromatography separates by hydrodynamic size, large species first.)

B1: full-length murine MESDc1 ([…]) (natural protein)
chain: not shown
As a reminder, the stoichiometry N is a count of units in the complex or per binding partner. B1: the “stoichiometry N” value amounted to 2.
